Molecules are shown by their SMILES. The list shows a part of the results. Shown are side measurements of this screen, not its main read-out; they come without a call.

A short description of the assay: inhibitors of HIV fusion peptide binding, primary screen, biochemical, uHTS, fluorescence dequenching (AID 1986). The settings on record: cell-free peptide binding, 30 min, measured here: repeat confirmation average inhibition, at 18.6 µM, stronger effect = higher value.
Turning to `CCOc1ccc(NC(=O)c2c[nH]n3c(=O)cc(C4CCN(C(=O)OC(C)(C)C)CC4)nc23)cc1`, the inhibition (in general, the change of the read-out against control, counted positive when it falls) is 56.4%.
`COc1ccccc1/C=C1\SC(=S)N(CCC(=O)Nc2ccc(C(=O)O)c(O)c2)C1=O` showed an inhibition of 78.4%.
For `O=C(CN1C(=O)/C(=C2\SC(=S)N(CCS(=O)(=O)O)C2=O)c2ccccc21)Nc1cccc(Br)c1` the value was 80.1%.
The figure for `CC(C)S(=O)(=O)C1=NSC2=NC(=O)/C(=C\c3ccc(OC(=O)c4ccco4)cc3)C(=N)N21` is 57.2%; for `N=C1/C(=C\c2ccc(-c3cccc(C(=O)O)c3)o2)C(=O)N=C2SC=C(c3ccccc3)N12` it is 78.7%.
For `COc1cc(/C=N/Nc2ccc(Cl)c(C(=O)O)c2)ccc1OC(=O)c1ccccc1F` the value was 57.6%; for `COc1ccc(/C=N/NC(=O)c2[nH]c3ccc(Br)cc3c2-c2ccccc2)c(C(=O)O)c1OC`, 53%; for `CC(/C=C1\SC(=S)N(c2ccc(C(=O)O)cc2)C1=O)=C\c1ccccc1`, 62.4%.
As for `N#C/C(=C\c1ccc(O)c([N+](=O)[O-])c1)c1nc2ccccc2s1`, the inhibition worked out at 67.3%.
`O=C(O)CSc1nc(-c2ccc(Cl)cc2)nc2c1oc1ccccc12` showed an inhibition of 55.5%.
For the compound `CC(C)CCN1C(=O)c2ccc(C(=O)Nc3ccc(Br)cc3C(=O)O)cc2C1=O`, the inhibition is 71.2%.
Take `N#Cc1c(-c2ccccc2)nc(SCc2ccc(Cl)cc2)[nH]c1=O`: the inhibition was determined as 59.3%.
The figure for `O=C(CCN1C(=O)/C(=C\c2ccccc2F)SC1=S)Nc1ccc(C(=O)O)c(O)c1` is 71.6%.
The figure for `COc1cc(/C=N/NC(=O)C(Cc2c[nH]c3ccccc23)NC(=O)OCc2ccccc2)cc([N+](=O)[O-])c1O` (centres undefined) is 55.3%.
In turn, `O=S(=O)(Nc1nc2ccccc2nc1Nc1ccc(N2CCOCC2)cc1)c1cc(Cl)ccc1Cl` gave an inhibition of 63.8%.
The figure for `Cc1cc(Cl)ccc1OC(C)C(=O)Nc1ccc(S(=O)(=O)Nc2cnc3ccccc3n2)cc1` (centres undefined) is 64.3%; for `CN(C)S(=O)(=O)c1cccc(-c2nn(-c3ccccc3)cc2/C=C2\SC(=S)N(CC(=O)O)C2=O)c1` it is 66.2%.
`CSc1ccc(C(c2c(C(=O)O)[nH]c3ccccc23)c2c(C(=O)O)[nH]c3ccccc23)cc1` displayed an inhibition of 78.9%.
For the compound `COc1cc(/C=C2/C(=O)NN(c3ccc(C)c(Cl)c3)C2=O)cc([N+](=O)[O-])c1O`, the inhibition was found to be 62.9%.
In the case of `COc1ccc(C(=O)Nc2ccccc2C(=O)O)cc1NC(=O)C(c1ccccc1)c1ccccc1`, the inhibition was found to be 69.9%.
For `O=C(O)CN1C(=O)/C(=C\c2cccc(OCc3ccc(Cl)cc3Cl)c2)SC1=S` the value was 87.2%.
Compound `COc1ccc(-c2nn(-c3ccccc3)cc2/C=C\C(=O)Nc2ccc(C(=O)O)cc2)cc1` registered an inhibition of 64.7%.
The compound `COc1cc(NS(=O)(=O)c2ccc(Nc3nc(-c4ccccc4)cs3)cc2)nc(OC)n1` returned an inhibition of 52.3%.
Regarding `O=C(O)c1[nH]c2ccccc2c1C(c1cc(Br)ccc1O)c1c(C(=O)O)[nH]c2ccccc12`, the inhibition came to 78.3%.
For `COc1cc(/C=C2\C(=N)N3N=C(S(C)(=O)=O)SC3=NC2=O)ccc1OCCOc1ccc(C)cc1` the value was 78.9%; for `COc1ccc(C(=O)/C=C/c2ccc(-c3ccccc3)cc2)cc1CSCC(=O)O`, 70.7%.
For `O=C(O)c1cc(-c2ccc(/C=C3\NC(=O)N(c4ccc(Cl)cc4)C3=O)o2)ccc1Cl` the value was 54.9%; for `O=C(O)c1ccccc1N=Nc1c(O)[nH]c2ccc([N+](=O)[O-])cc12`, 51.1%.
In the case of `O=C(O)c1ccccc1-c1ccccc1C(=O)Nc1ccc(-c2nc3cc(Cl)ccc3o2)cc1`, the inhibition was 57.7%.
Compound `COc1cc(/C=C2/SC(=S)N(CC(=O)O)C2=O)ccc1OCC(=O)Nc1ccc(C)c(C)c1` showed an inhibition of 78.5%.
For `Cc1ccc(-c2nc(SCC(=O)Nc3ccccc3OC(F)F)c3c(C)c(C(=O)O)sc3n2)cc1` the value was 73.3%.
The figure for `O=C(O)C1Nc2c(cccc2C(F)(F)F)C2C=CCC12` (centres undefined) is 54.3%; for `CC(C)(C)c1ccc(OCC(=O)NNC(=S)NC(=O)c2ccccc2[N+](=O)[O-])c(Br)c1` it is 52.8%.
For `Cc1noc(NS(=O)(=O)c2ccc(NC(=O)Nc3ccc(Cl)c(Cl)c3)cc2)c1C` the value was 51.7%.
The compound `O=C(O)CN1C(=O)/C(=C\c2cc(Br)ccc2OCc2ccc(F)cc2)SC1=S` yielded an inhibition of 69.5%.
On to `COc1cc(/C=C(\C#N)c2nc3ccccc3s2)cc([N+](=O)[O-])c1O`, for which the inhibition is 76.2%.
In turn, `CCOc1ccc(CCNC(=O)c2ccc3c(=O)[nH]c4c(C(=O)NC(C)C)sc(=S)n4c3c2)cc1` had an inhibition of 61.5%.
`COc1cc(/C=N/NS(=O)(=O)c2ccc3ccccc3c2)ccc1OCc1ccc(C(=O)O)cc1` had an inhibition of 55.6%.
For `Cc1cc(Cl)ccc1OC(C)C(=O)Nc1ccc(C(=O)Nc2ccccc2C(=O)O)cc1` (centres undefined) the value was 76.8%; for `CCCOc1ccc(C(=O)NNC(=S)NC(=O)c2cc(-c3ccccc3)nc3ccccc23)cc1`, 57.6%; for `CC1=NN(c2ccc(C(=O)O)cc2)C(=O)/C1=C\c1ccc(OC(=O)c2cccs2)cc1`, 58.7%.
The figure for `CC(C)S(=O)(=O)C1=NSC2=NC(=O)/C(=C\c3ccc(-c4cccc(C(=O)O)c4)o3)C(=N)N21` is 54.2%; for `O=[N+]([O-])c1cccc(S(=O)(=O)Nc2nc3ccccc3nc2Nc2cccc(S(=O)(=O)N3CCCCC3)c2)c1` it is 68.4%; for `O=C(O)c1ccc(-c2ccc(/C=C3\NC(=O)N(Cc4ccc(Cl)cc4)C3=O)o2)cc1Cl` it is 63%.
The figure for `CC(/C=C1\SC(=S)N(C(C(=O)O)c2ccccc2)C1=O)=C\c1ccccc1` (centres undefined) is 54.5%; for `COc1ccc(C(=O)COC(=O)c2ccccc2NS(=O)(=O)c2ccc(O)c([N+](=O)[O-])c2)cc1` it is 61.7%.
On to `CCOC(=O)c1sc2nc3c(SCCC(=O)O)cc(C(=O)c4cc(OC)ccc4O)cn3c(=O)c2c1C`, for which the inhibition came out at 64.5%.
For the compound `CCc1ccc(/C=C2\SC(=S)N(CCCC(=O)Nc3ccccc3C(=O)O)C2=O)cc1`, the inhibition amounted to 74.8%.
In the case of `O=C1/C(=C\c2ccc(O)c(O)c2)C(c2ccccc2)=NN1c1ccccc1`, the inhibition came out at 59.6%.
The compound `CC(C(=O)Nc1ccc(O)c(C(=O)O)c1)N1C(=O)/C(=C/c2cccs2)SC1=S` (centres undefined) gave an inhibition of 64.7%.
In turn, `Cc1ccc(F)c(NC(=O)/C(C#N)=C(\O)c2ccc(C(C)(C)C)cc2)c1` came in with an inhibition of 53.9%.
The figure for `O=C(CN1C(=O)S/C(=C\C=C\c2ccccc2)C1=O)Nc1ccccc1C(=O)O` is 55%; for `Cc1ccc(NC(=S)NNc2ccc([N+](=O)[O-])cc2S(=O)(=O)Nc2ccccc2C(=O)O)cc1C` it is 76.6%.
The figure for `O=C(O)CCn1cc(/C=C/C(=O)c2ccc(Cl)cc2)c(-c2cccc(Br)c2)n1` is 57.6%.
As to `Cc1ccc(-c2cc(C(=O)Nc3ccc(S(=O)(=O)Nc4onc(C)c4C)cc3)c3ccccc3n2)cc1`, the inhibition worked out at 50.8%.
`COc1ccc(-c2csc(NC(=O)CSc3nc(C)nc4sc(C(=O)O)c(C)c34)n2)cc1`: the inhibition is 83.2%.
The figure for `O=C(O)c1cc(N/N=C/c2ccc(-c3ccccc3)cc2)ccc1Cl` is 58.4%; for `N#Cc1c(-c2ccccc2)nc(SCc2cccc(Cl)c2)[nH]c1=O` it is 68.7%; for `CCOC(=O)c1sc(N2C(=O)C(O)=C(C(=O)c3ccco3)C2c2cccc([N+](=O)[O-])c2)nc1C` (centres undefined) it is 59%.
`COc1ccccc1N1N=C(C(=O)c2ccccc2)C2C(=O)N(c3ccc(Br)cc3)C(=O)C21` (centres undefined) came in with an inhibition of 63.2%.
The figure for `O=C(O)C(c1ccccc1)N1C(=O)/C(=C\c2ccc(O)c(O)c2)SC1=S` (centres undefined) is 79.4%; for `COc1ccc(-c2csc(NC(=O)c3ccccc3NS(=O)(=O)c3ccc(C)cc3)n2)cc1` it is 67.6%; for `O=C1NN(c2ccc(Cl)cc2)C(=O)/C1=C\c1ccc(-c2cccc(C(=O)O)c2)o1` it is 67.6%.
The figure for `O=c1cc(-c2ccccc2Cl)oc2c(NS(=O)(=O)c3cc(Cl)cc(Cl)c3O)ccc(O)c12` is 80.1%.
For `CCOc1ccc2nc(NC(=O)CSc3nc(-c4ccccc4)c(C#N)c(=O)[nH]3)sc2c1` the value was 69.1%.
`Cc1oc2c(cc(NS(=O)(=O)c3ccc(C(C)C)cc3)c3ccccc32)c1C(=O)O` displayed an inhibition of 55%.
For `O=C(O)c1ccc(/C=N/NC(=O)c2ccc(CN3c4cccc5cccc(c45)S3(=O)=O)cc2)cc1` the value was 52.8%; for `CCS(=O)(=O)C1=NSC2=NC(=O)/C(=C\c3ccc(OS(=O)(=O)c4ccccc4)cc3)C(=N)N21`, 62.3%; for `CCOc1ccc(C2C(C(=O)Nc3ccccc3)=C(C)N=c3s/c(=C/c4cccc(OCC(=O)O)c4)c(=O)n32)cc1` (centres undefined), 51.3%.
Compound `CCCCCNC(=O)c1ccc2c(=O)[nH]c3c(C(=O)NCC4CCCO4)sc(=S)n3c2c1` (centres undefined) displayed an inhibition of 52%.
The compound `COc1cc(/C=C2\SC(=O)N(Cc3ccc(F)cc3)C2=O)cc([N+](=O)[O-])c1O` gave an inhibition of 68.5%.
The figure for `COc1cc(/C=C2\SC(=O)N(c3ccccc3Cl)C2=O)cc([N+](=O)[O-])c1O` is 59.4%.
Take `O=C(O)CN1C(=O)/C(=C\c2cc(Br)ccc2OCc2ccccc2F)SC1=S`: the inhibition came to 83.3%.
For `CN(C)S(=O)(=O)c1cccc(-c2nn(-c3ccccc3)cc2/C=C2\SC(=S)NC2=O)c1` the value was 74.1%; for `O=C1/C(=C2\C(=O)N(Cc3ccc(F)cc3)c3ccccc32)SC(=S)N1CCS(=O)(=O)O`, 69.8%.
Consider `O=C1NN(c2ccc(Cl)c(Cl)c2)C(=O)/C1=C/c1ccc(-c2ccccc2C(=O)O)o1`, for which the inhibition was found to be 57.2%.
Regarding `O=C(O)c1cccc(NC(=S)N/N=C/c2ccccc2OCc2cccc(Br)c2)c1`, the inhibition came out at 75.9%.
For `COc1cc(/C=C2\S/C(=N/S(=O)(=O)c3ccc(C)cc3)NC2=O)c([N+](=O)[O-])cc1OC`, the inhibition was found to be 68.9%.
For `C=CCOc1ccc(C(c2c(C(=O)O)[nH]c3ccccc23)c2c(C(=O)O)[nH]c3ccccc23)cc1` the value was 81.1%.
On to `Cc1c(CCC(=O)O)c(=O)oc2c(C)c3occ(-c4ccc(Br)cc4)c3cc12`, for which the inhibition amounted to 76%.
Consider `O=[N+]([O-])c1cc([N+](=O)[O-])c2oc(-c3ccccc3)c(Br)c2c1O`, for which the inhibition turned out to be 88.2%.
The figure for `O=C(O)c1cccc(N/N=C/c2cc(Br)cc(Br)c2O)c1` is 69.3%; for `N#Cc1c(SCC(=O)Nc2nc3ccc(Br)cc3s2)sc2c(O)cc(=O)[nH]c12` it is 68.3%.
The figure for `O=C(O)C[C@@H]1C(=O)O[C@@H]2C(COC(=O)c3cc(O)c(O)c(O)c3)O[C@@H](OC(=O)c3cc(O)c(O)c(O)c3)[C@@H](OC(=O)c3cc(O)c(O)c4c3[C@H]1[C@H](O)C(=O)O4)[C@H]2OC(=O)c1cc(O)c(O)c(O)c1` (some centres undefined) is 72.6%.
